In paper PMC4336329 (PLoS ONE, 2015):
Out of some 310,000 compounds screened, about 14,000 (4.5%) showed an effect of 50% or more. Effects have a minus sign here. The list shows a part of the results.

These molecules were tested against human ether-à-go-go-related gene (hERG) potassium channel (human, UniProt Q12809) (assay: primary screen, population patch clamp on CHO cells stably expressing hERG).
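Also: peak tail current of the secondary pulse compared with the same well before compound.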

human ether-à-go-go-related gene (hERG) potassium channel, sequence (Q12809 whole entry, looked up): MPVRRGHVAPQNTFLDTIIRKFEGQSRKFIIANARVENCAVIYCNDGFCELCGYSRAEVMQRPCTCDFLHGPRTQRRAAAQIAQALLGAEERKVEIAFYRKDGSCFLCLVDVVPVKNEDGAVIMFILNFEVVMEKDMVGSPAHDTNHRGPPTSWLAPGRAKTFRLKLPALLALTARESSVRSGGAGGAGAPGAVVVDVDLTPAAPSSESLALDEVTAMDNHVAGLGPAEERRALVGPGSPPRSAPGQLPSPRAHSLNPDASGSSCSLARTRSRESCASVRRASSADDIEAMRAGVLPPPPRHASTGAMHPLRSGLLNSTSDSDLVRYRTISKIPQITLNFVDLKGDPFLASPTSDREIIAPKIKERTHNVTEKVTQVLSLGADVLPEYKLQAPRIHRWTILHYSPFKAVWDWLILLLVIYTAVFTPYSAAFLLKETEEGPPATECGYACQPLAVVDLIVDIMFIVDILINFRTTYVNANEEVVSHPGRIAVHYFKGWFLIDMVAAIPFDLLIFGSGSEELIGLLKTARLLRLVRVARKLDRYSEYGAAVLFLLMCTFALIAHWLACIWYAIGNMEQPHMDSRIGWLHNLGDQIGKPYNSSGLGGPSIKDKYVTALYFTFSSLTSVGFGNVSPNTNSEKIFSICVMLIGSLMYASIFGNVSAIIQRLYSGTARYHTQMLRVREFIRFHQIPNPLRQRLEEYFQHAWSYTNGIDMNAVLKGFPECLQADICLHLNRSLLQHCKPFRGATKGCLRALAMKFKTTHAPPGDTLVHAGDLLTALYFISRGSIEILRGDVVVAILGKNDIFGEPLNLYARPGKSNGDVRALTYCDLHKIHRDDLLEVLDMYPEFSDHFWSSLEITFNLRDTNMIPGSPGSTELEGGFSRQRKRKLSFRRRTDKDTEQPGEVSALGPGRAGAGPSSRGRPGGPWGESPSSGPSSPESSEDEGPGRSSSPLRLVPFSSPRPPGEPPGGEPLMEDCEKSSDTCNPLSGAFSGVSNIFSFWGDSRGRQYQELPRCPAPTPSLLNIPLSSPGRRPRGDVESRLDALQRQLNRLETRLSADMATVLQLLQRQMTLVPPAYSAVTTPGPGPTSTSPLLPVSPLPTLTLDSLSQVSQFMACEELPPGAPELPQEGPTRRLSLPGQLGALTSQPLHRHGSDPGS

| SMILES | hERG current change (%, negative = inhibition) at 10uM |
| --- | --- |
| CCC(=O)Nc1ccc2c(c1)ncn2-c1ccccc1 | 4.49% |
| CC(=O)c1ccc(S(=O)(=O)N(Cc2cc3cc4c(cc3[nH]c2=O)OCCO4)CC2CCCO2)cc1 (stereo not drawn) | 8.84% |
| Cc1cc(C)c2[nH]c(=O)c(CN(Cc3ccc4c(c3)OCO4)Cc3nnnn3C3CCCC3)cc2c1 | -4.47% |
| CN(C)S(=O)(=O)c1ccc(N2C(=O)CC2(/C=C/c2ccccc2)C(=O)NC2CCCC2)cc1 (stereo not drawn) | 19.8% |
| Cc1cc2occ(CC(=O)N(C)CC(=O)Nc3ccccc3Br)c2cc1C | 12.8% |
| COCCNC(=S)NC(=O)CC12CC3CC(CC(C3)C1)C2 | 2.18% |
| CCN(C(=O)CSc1ncn[nH]1)c1c(N)n(Cc2ccccc2)c(=O)[nH]c1=O | 17.7% |
| O=C(NCc1ccc2c(c1)OCO2)c1ccc(Cl)c(S(=O)(=O)N2CCOCC2)c1 | -18.8% |
| Cn1c(C(=O)N2CCN(c3ccccc3)CC2)cc2cc(Cl)ccc21 | 19.1% |
| Cc1ccc(S(=O)(=O)N(C)C)cc1NC(=O)CN1CCN(Cc2ccccc2)CC1.Cl | -24.8% |
| Nc1nc(SCC(=O)Nc2cccc(S(=O)(=O)N3CCCCCC3)c2)n[nH]1 | -3.93% |
| OC1CCCN(c2ncnc3c2nnn3Cc2c(F)cccc2Cl)C1 (stereo not drawn) | 0.989% |
| Cc1ccc(S(=O)(=O)NCC(=O)NCC(=O)NCCc2ccccc2F)cc1C | -2.01% |
| Cl.Fc1ccccc1/C=N/N1CCN(Cc2ccccc2Cl)CC1 | 21.3% |
| CN(C)C(=O)c1cccn(Cc2cccc(C(F)(F)F)c2)c1=O | 6.99% |
| Cc1ccc(S(=O)(=O)N2CC(=O)Nc3ccccc32)c(C)c1NS(C)(=O)=O | 6.92% |
| O=C(O)COc1ccc(/C=C/c2nc(-c3ccccc3O)n[nH]2)cc1 | 24.2% |
| COc1ccc2[nH]c(CN3CCN(CCC(C)C)C(CCO)C3)c(C)c2c1 (stereo not drawn) | 23.5% |
| COc1cc2cc(C(=O)O)n(C)c2c(OC)c1OC | 9.35% |
| NC(=O)c1cc([N+](=O)[O-])ccc1NCc1ccc(O)cc1 | -19.9% |
| CCNC(=S)N/N=C/c1cc(C)ccc1C | 21.4% |
| CCc1ccc(N2C(=O)CC(N(CC3CCCO3)C(=O)/C=C/C(=O)O)C2=O)cc1 (stereo not drawn) | 24.2% |
| CC1=NCCc2c1[nH]c1cc(O)ccc21.Cl.O | -9.58% |

| SMILES | hERG current change (%, negative = inhibition) at 10uM |
| --- | --- |
| Cc1cc(C(=O)N2CCN(c3ccccn3)CC2)no1 | -11.4% |
| Nc1nc2n(n1)C(c1ccco1)CC(c1ccc(Cl)cc1Cl)N2 (stereo not drawn) | -25% |
| CCCCCCN1CCN(c2ccc(Cl)cc2)CC1 | -66.9% |
| Cc1cc(C)c(C#N)c(SCCS(=O)(=O)Cc2ccccc2)n1 | 15% |
| COCCN(CCOC)c1ncnc2c1cnn2-c1ccc(Cl)cc1 | -27.7% |
| Cc1ccc(SCCNC(=O)CN2C(=O)c3ccccc3S2(=O)=O)cc1 | -35.7% |
| C(=N\Nc1ccccc1)/c1ccc(N2CCOCC2)cc1 | -0.949% |
| CC(=O)Nc1ccc(S(=O)(=O)Nc2cccc(-n3cnnn3)c2)cc1 | 21.5% |
| COc1cccc(CNC(=O)CC2C(=O)NCCN2CCCc2ccccc2)c1 (stereo not drawn) | -6.17% |
| CCCCn1c(=O)c(C=Nc2cc([N+](=O)[O-])ccc2OC)c(O)n(CCCCl)c1=O | -34.9% |
| CCc1nnc(NC(=O)c2n[nH]c(=O)c3ccccc23)s1 | 14.3% |
| COc1ccccc1NC(=S)N(Cc1ccccc1)Cc1cccs1 | 14.9% |
| CCOP(=O)(OCC)C(O)c1cc(OC)c(OC)c(OC)c1 (stereo not drawn) | -0.612% |
| Cn1c(N)c(C(=O)COC(=O)CCCOc2ccc(Cl)cc2Cl)c(=O)n(C)c1=O | -12.2% |
| COCCNc1nc(-c2cc(-c3ccc(Cl)cc3)on2)cc(C(C)C)n1 | 14.5% |
| Cc1cc(C)c(S(=O)(=O)N2CCN(C(=O)N(C)C)CC2)c(C)c1 | 7.06% |
| CCOc1cc2[nH]c(=S)n(CCCN(CC)CC)c(=O)c2cc1OCC | -29.6% |
| O=C(CSc1nc(-c2ccccc2)c(-c2ccccc2)[nH]1)NCCN1C(=O)CSC1=O | -33.2% |
| Cc1ccc(F)cc1NC(=O)C1CC(=O)N(CCc2ccccc2)C1 (stereo not drawn) | -8% |
| O=C(O)C1CCCCC1C(=O)NC1C2CC3CC(C2)CC1C3 (stereo not drawn) | 22.1% |
| Cn1cccc1C(C#N)c1cccc(F)c1C#N (stereo not drawn) | 6.07% |
| O=C1CC(=C(c2ccccc2)c2ccccc2)C(=O)N1CCCN1CCN(c2cccc(Cl)c2)CC1 | 1.35% |
| COc1cccc(/C=C2/C(=O)NN(c3ccccc3)C2=O)c1 | 15.8% |

| SMILES | hERG current change (%, negative = inhibition) at 10uM |
| --- | --- |
| CCOC(=O)N1CCN(C(=O)CSc2nc3c([nH]c4ccccc43)c(=O)n2CCOC)CC1 | -65.1% |
| Cc1cc(C(=O)N/N=C/c2cccnc2)c2ccccc2n1 | 5.99% |
| Cc1ccc(NCc2nnc(SCc3ccc(C#N)cc3)n2Cc2ccco2)c(C)c1 | -70.8% |
| CCc1nnc(NC(=O)CN2CCOCC2)s1 | 15.5% |
| COc1ccccc1N(C)S(=O)(=O)c1ccc(C(=O)OCC(=O)NCc2ccco2)cc1 | -10.2% |
| CCN(CC)c1ccc(N=Cc2c(C)[nH]c3ccccc23)cc1 | 4.04% |
| O=C(O)CP(=O)(O)O | 13.1% |
| Cn1nccc1C(=O)Nc1cccc(C(F)(F)F)c1 | 10.4% |
| CC(C)n1c(-c2cccs2)nc2ccccc21 | 0.616% |
| O=C(NCCc1c[nH]c2ccccc12)c1cnc2sccn2c1=O | -10.9% |
| CSc1ccccc1C(=O)C1CCCN(C(=O)c2cncs2)C1 (stereo not drawn) | 4.56% |
| c1ccc(Cn2c(CSc3nnnn3-c3ccccc3)nc3ccccc32)cc1 | 0.782% |
| O=C(NCc1ccccn1)c1cc2c(ccc3ccccc32)oc1=O | 20.1% |
| Cc1cccc(Nc2nnc(C)c(=O)n2N)c1 | -14.2% |
| CC(C)CNC(=S)NC(=O)c1ccc([N+](=O)[O-])cc1 | -14% |
| COc1ccccc1CCNC(=O)CN1C(=O)c2ccccc2S1(=O)=O | 2.11% |
| COc1ccccc1CNC(=O)CCC(=O)n1ncc2cc(C)ccc21 | 0.647% |
| Cc1cc(C)c(CN2CCN(Cc3ccc(C)o3)C(CCO)C2)c(-n2cccn2)c1 (stereo not drawn) | -76.4% |
| O=C(CCN1C(=O)/C(=C/c2ccccc2F)SC1=S)NCCCN1CCOCC1 | -14% |
| CCCC(=O)N1N=C(c2ccccc2)CC1c1cn(C)c2ccccc12 (stereo not drawn) | -5.07% |
| O=C(Cc1c(C(=O)O)[nH]c2ccccc12)NC1CCCC1 | 20.3% |
| CNc1ccccc1 | 14.2% |
| Cc1nn2c(=O)c3c4c(sc3nc2n1-c1ccccc1)COC(C)(C)C4 | -21.4% |

| SMILES | hERG current change (%, negative = inhibition) at 10uM |
| --- | --- |
| COc1ccc(C(=O)c2ccc(N(C)C)cc2)c(OC)c1 | -15.7% |
| CC(=O)N(CC(=O)O)c1ccccc1C(=O)O | 12% |
| COc1ccc(CCn2c(-c3ccc(C(C)(C)C)cc3)n[nH]c2=S)cc1OC | 7.14% |
| COc1cc(-c2cc(C(=O)O)c3c(OC)c(OC)c(OC)cc3n2)ccc1O | 15.4% |
| COc1cc(CC2(CCc3ccncc3)C(=O)NC(=O)NC2=O)cc(OC)c1OC | 18.4% |
| Cc1ccc(-c2cc(C(=O)N3CCN(C(=O)c4ccco4)CC3)[nH]n2)c(C)c1 | -39.7% |
| CCn1c(Cc2ccccc2)nnc1SCC(=O)NC1CCCC1 | 31.8% |
| Cc1cc(C)cc(N(C(=O)c2ccco2)C(C(=O)NC2CCCC2)c2ccncc2)c1 (stereo not drawn) | 9.94% |
| CCCCC(=O)Nc1ccc(C(=O)N2CCCC(C(=O)OCC)C2)cc1 (stereo not drawn) | 7.66% |
| Cc1ccc(C)c(NC(=O)C2C3CCCC2C3c2ccccc2)c1 (stereo not drawn) | 6.75% |
| CC1=CC(c2ccccc2)n2nc(N3C(=O)c4ccccc4C3=O)nc2N1 (stereo not drawn) | 7.5% |
| N#Cc1cc2ccccc2nc1SCC(=O)Nc1ccccc1N1CCOCC1 | 14.7% |
| Cc1cc(/C=N/Nc2ccc([N+](=O)[O-])cn2)c(C)n1-c1ccccc1 | 9.19% |
| Cc1ccc(N=Nc2c(N)n[nH]c2N)cc1 | 24.5% |
| COc1ccccc1N1CCN(C(=O)c2cc(-c3ccc(F)cc3)[nH]c2C)CC1 | -64.5% |
| CCC(=O)Nc1ccc(NC(=O)CSc2nnnn2-c2cccnc2)cc1C | 4.84% |
| COc1cccc(-c2c(C#N)c(N)nc3c2c(=O)nc2sccn23)c1 | 17.3% |
| CC1CCN(c2c(NCC3CCC(C(=O)NCc4ccccc4Cl)CC3)c(=O)c2=O)CC1 (stereo not drawn) | 3.96% |
| COc1ccc(C2c3ccc(O)cc3Oc3ncn(CCN4CCOCC4)c(=N)c32)cc1OC (stereo not drawn) | -11.8% |
| N/C(=N\O)c1ccc(Cl)cc1Cl | 2.46% |
| CCC(CC)N1CCN(C(=O)c2cc(OC)c(OC)c(OC)c2)CC1 | 16.9% |
